The record followed here is article PMC12537989.

Amino acid sequences for entries named in this document (tags omitted).
UniProt P51150: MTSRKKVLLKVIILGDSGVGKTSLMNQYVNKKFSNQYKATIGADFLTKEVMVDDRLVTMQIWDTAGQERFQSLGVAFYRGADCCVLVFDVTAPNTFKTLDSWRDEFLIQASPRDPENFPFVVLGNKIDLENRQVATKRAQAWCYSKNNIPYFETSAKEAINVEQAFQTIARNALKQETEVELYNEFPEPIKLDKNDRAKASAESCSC

These are yes or no findings as the source states them, for the method shown. Binding seen in cells or lysates may run through a third protein. Some binding calls cover weakened binding; strength is not graded here.

What all share (assay): co-IP; HEK293T cells co-transfected with SLC9A9 and the partner plasmid, collected 36 h after transfection; lysed in 50 mM Tris-HCl pH 7.4, 1 mM EDTA, 150 mM NaCl, 1% Triton; protein A/G Plus-Agarose and 3 ug antibody, 12 h at 4 C, 5 washes; immunoblot; some samples with amiloride treatment (interaction inhibited)
In general terms: In western blotting, separated proteins are transferred to a membrane and probed.

Assay [1] deals with T1, Esyt1 (mouse) (UniProt Q3U7R1).
T1 sequence: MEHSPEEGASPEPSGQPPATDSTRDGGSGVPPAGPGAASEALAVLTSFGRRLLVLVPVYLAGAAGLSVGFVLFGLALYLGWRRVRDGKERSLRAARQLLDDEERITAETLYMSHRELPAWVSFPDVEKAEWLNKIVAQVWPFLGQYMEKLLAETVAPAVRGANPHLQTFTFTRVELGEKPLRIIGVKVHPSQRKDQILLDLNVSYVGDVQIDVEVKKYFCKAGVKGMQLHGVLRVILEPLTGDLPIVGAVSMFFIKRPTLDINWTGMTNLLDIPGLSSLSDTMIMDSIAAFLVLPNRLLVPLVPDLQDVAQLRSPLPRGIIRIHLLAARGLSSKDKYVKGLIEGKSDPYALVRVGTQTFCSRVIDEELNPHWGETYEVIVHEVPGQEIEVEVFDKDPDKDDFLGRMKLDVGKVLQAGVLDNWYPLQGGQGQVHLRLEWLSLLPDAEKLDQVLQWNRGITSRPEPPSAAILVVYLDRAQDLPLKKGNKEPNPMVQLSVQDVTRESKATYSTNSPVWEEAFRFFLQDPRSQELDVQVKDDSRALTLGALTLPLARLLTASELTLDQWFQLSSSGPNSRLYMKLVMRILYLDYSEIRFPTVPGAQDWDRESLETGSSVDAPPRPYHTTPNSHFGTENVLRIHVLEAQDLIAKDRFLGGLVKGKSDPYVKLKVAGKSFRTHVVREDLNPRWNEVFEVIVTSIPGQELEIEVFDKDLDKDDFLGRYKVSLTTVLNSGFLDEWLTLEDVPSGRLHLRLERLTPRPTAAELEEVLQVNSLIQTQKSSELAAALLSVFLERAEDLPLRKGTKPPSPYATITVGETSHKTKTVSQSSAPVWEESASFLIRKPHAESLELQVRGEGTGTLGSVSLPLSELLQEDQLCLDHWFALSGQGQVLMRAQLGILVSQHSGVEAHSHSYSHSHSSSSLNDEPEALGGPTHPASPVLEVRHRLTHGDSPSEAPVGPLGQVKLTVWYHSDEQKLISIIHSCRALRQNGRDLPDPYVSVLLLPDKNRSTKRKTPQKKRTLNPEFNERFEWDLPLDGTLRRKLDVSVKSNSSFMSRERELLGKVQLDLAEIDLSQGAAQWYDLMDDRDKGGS

Assay [2] addresses T2, Rab5a (mouse) (UniProt Q9CQD1).
T2 sequence: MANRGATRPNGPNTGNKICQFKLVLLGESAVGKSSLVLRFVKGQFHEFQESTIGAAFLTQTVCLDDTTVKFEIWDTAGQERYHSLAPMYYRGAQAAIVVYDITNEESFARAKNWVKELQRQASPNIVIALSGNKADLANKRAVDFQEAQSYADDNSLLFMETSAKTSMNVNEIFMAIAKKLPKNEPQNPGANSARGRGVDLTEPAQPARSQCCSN

The target in assay [3] is Rab7 (mouse) (UniProt P51150).
For assay [4], the target named is T3, Vps16 (mouse) (UniProt Q920Q4).
T3 sequence: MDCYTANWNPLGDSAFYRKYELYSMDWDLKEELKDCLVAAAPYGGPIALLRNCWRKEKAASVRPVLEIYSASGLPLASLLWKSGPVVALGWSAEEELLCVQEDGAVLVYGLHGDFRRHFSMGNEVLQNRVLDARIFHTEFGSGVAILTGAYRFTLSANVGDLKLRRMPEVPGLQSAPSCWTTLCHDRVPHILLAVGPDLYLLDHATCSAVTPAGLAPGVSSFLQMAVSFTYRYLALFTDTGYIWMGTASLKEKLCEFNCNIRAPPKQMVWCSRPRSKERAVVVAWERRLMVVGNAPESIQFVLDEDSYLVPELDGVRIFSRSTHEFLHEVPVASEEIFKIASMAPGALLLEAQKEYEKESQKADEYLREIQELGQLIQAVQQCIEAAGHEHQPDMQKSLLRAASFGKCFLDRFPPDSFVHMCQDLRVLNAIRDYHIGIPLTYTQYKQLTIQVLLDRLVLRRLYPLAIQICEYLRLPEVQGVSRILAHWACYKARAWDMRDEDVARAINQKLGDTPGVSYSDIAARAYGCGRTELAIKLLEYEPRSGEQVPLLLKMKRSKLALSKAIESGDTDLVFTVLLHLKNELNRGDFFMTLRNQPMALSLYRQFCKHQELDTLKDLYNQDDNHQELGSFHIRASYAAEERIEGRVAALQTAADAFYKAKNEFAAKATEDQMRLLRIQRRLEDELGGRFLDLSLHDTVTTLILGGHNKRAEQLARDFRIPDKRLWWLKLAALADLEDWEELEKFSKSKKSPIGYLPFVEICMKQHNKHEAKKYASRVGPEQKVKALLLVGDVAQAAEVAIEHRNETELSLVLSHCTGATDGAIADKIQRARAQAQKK

B1: Endosomal solute carrier family 9 member A9 (SLC9A9) (protein, UniProt Q8BZ00 1-644)
chain: MAGQLRFTSGKDEDHFQHQGAVELLAFNFLLILTILTIWLFKNHRFRFLHETGGAMVYGLIMGLILRYATAPTDIDSGTVYNCGNLFFSPSTLLVNITDQVYEYKYQREINQHNISPHQGNAILEKMTFDPEIFFNVLLPPIIFHAGYSLKKRHFFQNLGSILTYAFLGTAISCVVIGLIMYGFVKAMVHAGQLKSGDFHFTDCLFFGSLMSATDPVTVLAIFHELHVDPDLYTLLFGESVLNDAVAIVLTYSISIYSPKENPNAFDTAAFFQSVGNFLGIFAGSFAMGSAYAVVTALLTKFTKLREFPMLETGLFFLLSWSAFLSAEAAGLTGIVAVLFCGVTQAHYTYNNLSSDSKLRTKQLFEFMNFLAENVIFCYMGLALFTFQNHIFNALFILGAFLAIFVARACNIYPLSFLLNLGRKQKIPWNFQHMMMFSGLRGAIAFALAIRNTESQPKQMMFTTTLLLVFFTVWVFGGGTTPMLTWLQIRVGVDLDESLKEEPSSQQEANKLDKNMTKTESAQLFRMWYGFDHKYLKPILTHSGPPLTTTLPAWCGPVSRLLTSPQAYGEQLKEDDVECIVNQDELAMNYQEQSPSPSSPTTKLALDQKSSGQTPGKENIYEGDLGLGGYDLKLEQTRGQPQMD
Turning to B1, the binding result was “binds” in assay [1], “no binding” in assay [2], “binds” in assay [3] and “binds” in assay [4].
